Laboratory results: the supplement of paper PMC7826260
Some of the results follow. Cleavage of a single-stranded DNA pool by Rep nickase domains was read by sequencing at 3 µM enzyme and 37 °C for 1 h; the strands have 90 letters, of which the middle is given. Numbers give uncut DNA relative to the enzyme-free pool, as log2; more negative means more cut, near 0 not cut, and no call is made. Because reads are shares of a total, they shift together, so uncut sequences can rise above 0 when many others are cut.

Tested on: T1, Rep nickase domain of tomato golden mosaic virus
T1 sequence (protein, residues 1-124, tag omitted): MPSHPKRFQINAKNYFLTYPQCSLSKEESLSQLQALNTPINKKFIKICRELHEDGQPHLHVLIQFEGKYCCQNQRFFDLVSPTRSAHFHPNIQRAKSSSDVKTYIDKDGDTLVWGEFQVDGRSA
Experiment: uncleaved DNA left, log2 of reads against the no-enzyme library (log2 ratio); higher = less cleavage (more negative = more Rep cleavage of the k-mer); sequences stand for … in CTCGTCCG…ACCGGAGA
Experimental: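 A pool of 90-nt single-stranded DNAs with seven random bases just before the constant AC of the nick site (name = the seven bases) was cut by 3 µM recombinant His6-SUMO-tagged Rep nickase domain (300 nM DNA, 50 mM HEPES pH 8.0, 50 mM NaCl, 1 mM MnCl2, 1 h, 37 °C, three replicates). Uncut DNA was amplified and sequenced.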

Sequence | uncleaved DNA left (log2)
AACCACA | 0.01
TGGTACT | -0.0907
CCTCACG | -0.184
TCGGTAT | -0.00827
AAGAACT | -0.052
CCGTCTC | -0.198
AAAAAAC | 0.072
CGCAGTT | -0.182
TAGAGCC | -0.141
GGTAGTT | -0.151
GCGCCTC | 0.021
ATTACGT | 0.0293
CTAAAAT | -0.166
CCCTCAA | -0.0447
TTTTTAG | -0.105
TAGCGGT | -0.0308
CTATCAT | 0.1
GACTAAT | 0.0398
GCACACT | -0.102
TTTATAG | 0.04

Sequence | uncleaved DNA left (log2)
ATGAACC | -0.0141
CTAGCGC | -0.245
TTTCGGT | -0.0495
CGGTCCC | -0.0673
CCCGCCT | -0.0977
GACTAGC | 0.0627
CTTATTC | -0.136
TTAGTAT | 0.0703
GTGATGT | 0.0761
TACCTCA | -0.0721
GTTAGAC | 0.0594
TCACACT | -0.152
TTGGGTA | -0.237
TGATTTG | -0.0744
AATGTCG | 0.00969
AGACCAA | 0.051
TACATGC | -0.13
ATGGTTA | 0.0798
GATATAA | 0.106
ATGGGTG | 0.124
